Reference: PubChem BioAssay AID588591 (National Center for Advancing Translational Sciences (NCATS), 2011)
In all, about 390,000 compounds went through this assay and about 4,700 (1.2%) were called active. Inconclusive means that the source gave no clear call. Such entries were picked first, then a sample of the others. The call rests on the fitted dose curve; in most records, active means well fitted inhibition curve with a large enough effect; inconclusive means small, poorly fitted or top-dose-only effect, or another doubt; inactive means no such curve, though single readings can be large or run the other way. Potencies beside an inconclusive call are fits to weak or partial responses and may not hold up.

Biological target: DNA polymerase eta (Homo sapiens) (UniProt Q9Y253)
Experiment: qHTS for Inhibitors of Polymerase Eta
Conditions: recombinant Pol eta, fluorescent DNA replication assay; series mostly up to 114 µM
How it was run: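 Pol eta at 10 nM preincubated with compounds 15 min at room temperature; reaction started with fluorescent substrate (50 nM final) and read kinetically at 0 and 10 min.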
Potency means the concentration at half of the fitted maximal effect; tags describe the fitted curve by direction and shape.

Sequence of UniProt Q9Y253 (Q9Y253 whole entry, looked up): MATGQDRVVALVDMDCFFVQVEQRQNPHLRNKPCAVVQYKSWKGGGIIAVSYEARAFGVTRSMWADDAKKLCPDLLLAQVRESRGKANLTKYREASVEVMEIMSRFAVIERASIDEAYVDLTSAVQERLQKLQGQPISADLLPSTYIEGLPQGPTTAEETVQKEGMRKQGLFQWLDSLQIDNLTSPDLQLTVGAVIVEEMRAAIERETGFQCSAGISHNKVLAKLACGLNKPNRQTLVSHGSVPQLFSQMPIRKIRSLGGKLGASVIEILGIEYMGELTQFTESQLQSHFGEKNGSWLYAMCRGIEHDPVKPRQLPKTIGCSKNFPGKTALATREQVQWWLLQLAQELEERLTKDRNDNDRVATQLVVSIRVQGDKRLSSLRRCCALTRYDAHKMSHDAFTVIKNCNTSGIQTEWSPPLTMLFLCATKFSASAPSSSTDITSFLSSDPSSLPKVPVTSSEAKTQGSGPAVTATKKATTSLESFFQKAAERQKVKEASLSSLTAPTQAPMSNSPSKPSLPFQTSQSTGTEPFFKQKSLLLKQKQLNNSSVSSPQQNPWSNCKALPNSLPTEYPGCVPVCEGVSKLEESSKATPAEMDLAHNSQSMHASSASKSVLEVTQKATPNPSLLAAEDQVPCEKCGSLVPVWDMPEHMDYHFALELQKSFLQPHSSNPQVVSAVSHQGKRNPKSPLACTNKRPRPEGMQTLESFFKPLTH

SMILES | Potency
O=C1C=CC(=O)N1c1ccc(O)cc1 | inactive
CN1C(=O)Cc2cc(S(=O)(=O)CCC(=O)Nc3cccc(C(F)(F)F)c3)ccc21 | inactive
COc1cc(/C=C/C(=O)c2ccc(NS(=O)(=O)c3ccc(C)cc3)cc2)cc(OC)c1O | active: 10 µM
CCOC(=O)C1(C)C=C(Nc2ccc(C(N)=O)cc2)C(=O)N1c1ccccc1 (stereo unspecified) | inconclusive: 89.1 µM [inhibitor, partial curve, poor fit]
CC1(C)Nc2ccc(O)cc2-c2c1ssc2=S | inactive
C[C@@H]1Cc2c(O)c(O)cc(O)c2C(=O)O1 | active: 22.4 µM
C=CCn1c(SCC(=O)Nc2ccc(C(=O)O)cc2)nc2scc(-c3ccccc3)c2c1=O | inactive
COc1ccc2[nH]c(=O)c(COC(=O)c3ccco3)cc2c1 | inconclusive: 39.8 µM [inhibitor, partial curve, poor fit]
CCN(CC)c1ccc(C(=O)OCC(=O)Nc2ccc3[nH]c(=O)[nH]c3c2)cc1 | inconclusive: 44.7 µM [inhibitor, partial curve, poor fit]
COc1ccc(-n2nc(C(=O)N3CCC(C)CC3)c3c4ccccc4n(C)c3c2=O)cc1Cl | inactive
CC(C)c1ccc2c(c1)C1Cc3ccccc3C1N2 (stereo unspecified) | inconclusive: 89.1 µM [inhibitor, partial curve, poor fit]
Cc1cc(N2C(=O)C3C4C=CC(C4)C3C2=O)ccc1NC(=O)c1cccs1 (stereo unspecified) | inconclusive: 28.2 µM [inhibitor, single point]
O=c1c2ccccc2[nH]c2ccc(O)cc12 | active: 17.8 µM
COC(=O)c1ccc(COc2ccccc2/C=C/C(=O)c2ccc(OCC(=O)O)cc2)cc1 | active: 22.4 µM
CCN1CCN(c2ccc(Cl)cc2NC(=O)c2ccco2)CC1 | inactive
CC1CCCC(NC(=O)NC(=O)CCl)C1C (stereo unspecified) | inconclusive: 79.4 µM [inhibitor, single point]
CC(C)(C)OC(=O)NCCCC[C@H](NC(=O)c1[nH]cnc1C(=O)N[C@@H](Cc1ccccc1)C(=O)OCc1ccccc1)C(=O)OC(C)(C)C | inconclusive: 79.4 µM [inhibitor, partial curve]
CN(C(=O)/C=C/c1ccco1)c1ccccc1C(=O)O | active: 44.7 µM
CCOC(=O)c1ccc(NC(=O)CN(c2ccc(C)cc2)S(=O)(=O)c2c(C)noc2C)cc1 | inconclusive: 28.2 µM [inhibitor, partial curve, poor fit]
CCCCOC(=O)c1ccc(Nc2ncnc3[nH]ncc23)cc1 | inactive
CCOC(=O)N1CCN(S(=O)(=O)c2ccc3[nH]cc(C(=O)O)c(=O)c3c2)CC1 | inconclusive: 28.2 µM [inhibitor, partial curve]
O=C(Nc1ccccc1)Nc1ncc([N+](=O)[O-])s1 | inactive

SMILES | Potency
Cc1ccc(NC(=O)CCc2nnc3n(CC(C)C)c(=O)c4ccccc4n23)cc1C | inactive
COc1ccc(C2C3=C(Nc4ncnn42)c2ccccc2CCC3)cc1 (stereo unspecified) | inactive
CC(=O)c1cccc(S(=O)(=O)NCCCN2CCOCC2)c1 | active: 20 µM
COc1ccc2nc(Cl)c(C3CC(c4ccco4)=NN3C(=O)CCC(=O)O)cc2c1 (stereo unspecified) | inconclusive: 25.1 µM [inhibitor, partial curve, poor fit]
CC(C)S(=O)(=O)C1=NSC2=NC(=O)/C(=C\c3ccc(-c4cccc(C(=O)O)c4)o3)C(=N)N21 | active: 7.94 µM
CCOC(=O)Cc1[nH]nc2c1C(c1cccc(OC)c1OC)C(C#N)=C(N)O2 (stereo unspecified) | inactive
COc1ccc2nc(N3C(=O)C(O)=C(C(=O)c4ccco4)C3c3ccccc3OC)sc2c1 (stereo unspecified) | inactive
COc1cccc(CNC(=O)COC(=O)c2ccc(-c3ccc(O)cc3)cc2)c1 | inconclusive: 44.7 µM [inhibitor, partial curve, poor fit]
O=C(CN1CCN(S(=O)(=O)c2ccc(F)cc2)CC1)Nc1ccc(F)cc1F | inactive
CC(=O)Nc1ccc(Sc2ccc([N+](=O)[O-])o2)cc1 | active: 31.6 µM
CCCCn1c(N)c(-c2nc3ccccc3o2)c2c([N+](=O)[O-])nn(C)c(=O)c21 | inconclusive: 17.8 µM [inhibitor, full curve]
Cc1cc(-c2ccco2)c(C#N)c2nc3ccccc3n12 | active: 10 µM
O=C(CCl)Nc1cccn2ncnc12 | inconclusive: 28.2 µM [inhibitor, single point]
CCc1ccccc1NS(=O)(=O)c1ccc2[nH]cc(C(=O)NCC3CCCO3)c(=O)c2c1 (stereo unspecified) | inconclusive: 39.8 µM [inhibitor, single point]
O=C(NC1CCCC1)c1c[nH]c2ccc(S(=O)(=O)Nc3cccc(C(F)(F)F)c3)cc2c1=O | inconclusive: 89.1 µM [inhibitor, single point]
COc1cccc2c1C(=O)c1c(O)c3c(c(O)c1C2=O)CC(O)(C(=O)CO)CC3OC1CC(N(C)C)C(O)C(C)O1 (stereo unspecified) | inconclusive: 12.6 µM [inhibitor, partial curve, poor fit]
Cc1ccc(N2CCN(C3=NC(=O)C(Cc4ccccc4)S3)CC2)cc1 (stereo unspecified) | inconclusive: 79.4 µM [inhibitor, partial curve, poor fit]
COc1cccc(N2CC(NC(=O)c3ccc(S(=O)(=O)N4CCCC4)cc3)CC2=O)c1 (stereo unspecified) | inactive
O=C(Cn1nc(-c2ccccc2)ccc1=O)Nc1ccc(NC(=O)c2ccccn2)cc1 | inconclusive: 39.8 µM [inhibitor, partial curve]
O=C(O)C1CCCCC1C(=O)Nc1nc(-c2ccc(Cl)s2)cs1 (stereo unspecified) | active: 44.7 µM
Cn1nc(C(=O)Nc2cccc(C(F)(F)F)c2)c2ccccc2c1=O | inconclusive: 1.41 µM [inhibitor, full curve, poor fit]
CC(=O)c1ccc(NC(=O)C(C)Oc2ccc(N(C)S(=O)(=O)c3ccc(C)cc3)cc2)cc1 (stereo unspecified) | inconclusive: 79.4 µM [inhibitor, partial curve, poor fit]

SMILES | Potency
CC1=NN(c2ccc(C(=O)O)cc2)C(=O)/C1=C\c1ccc(OC(=O)c2cccs2)cc1 | active: 22.4 µM
C/C=C/c1ccc(OCC(=O)Nc2cc(OC)c(OC)c(OC)c2)c(OC)c1 | inactive
O=[N+]([O-])c1ccc2nc(-c3ccc(Cl)cc3)[nH]c2c1 | inconclusive: 22.4 µM [inhibitor, partial curve, poor fit]
CC1(C)CC(=O)C=C(c2cccc(OC(=O)c3ccc(Br)cc3)c2)C1=O | inconclusive: 100 µM [inhibitor, partial curve, poor fit]
Cn1c2ccccc2c2cc(/C=N/NC(=O)c3ccc(N)cc3)ccc21 | inconclusive: 17.8 µM [inhibitor, partial curve, poor fit]
Cc1nn(-c2ccccc2)c(/N=C/c2ccc(O)cc2)c1-c1ccccc1 | inconclusive: 50.1 µM [inhibitor, partial curve, poor fit]
COc1ccc(S(=O)(=O)N2CCN(C(=O)c3ccc([N+](=O)[O-])o3)CC2)cc1 | inconclusive: 56.2 µM [inhibitor, partial curve, poor fit]
CCC(C)(C)NC(=O)CN(Cc1cccs1)C(=O)CNS(=O)(=O)c1ccc(C)cc1 | inconclusive: 39.8 µM [inhibitor, partial curve, poor fit]
Cc1ccc(Nc2nc(N)nc(CSc3nncn3C)n2)cc1 | inactive
COc1ccc(C2=CC3=C(Br)C(=O)C(C)(OC(=O)c4ccco4)C(=O)C3=CO2)cc1 (stereo unspecified) | inconclusive: 17.8 µM [inhibitor, full curve, poor fit]
COc1cc(C2NC(=O)NC(C)=C2C(=O)OC2CCCC(C)C2)cc(Br)c1O (stereo unspecified) | inconclusive: 100 µM [inhibitor, single point]
O=C1CSC(c2ccc([N+](=O)[O-])cc2)N1CCN1CCCCC1 (stereo unspecified) | inconclusive: 89.1 µM [inhibitor, partial curve, poor fit]
O=C(COc1ccccc1)Nc1ccc([N+](=O)[O-])cc1 | inconclusive: 3.55 µM [inhibitor, partial curve, poor fit]
COc1ccc(NC(=O)Cn2c(=O)c(-c3cc(C)ccc3NC(C)=O)nc3ccccc32)c(OC)c1 | inconclusive: 79.4 µM [inhibitor, partial curve]
CCOC(=O)c1nc2sc3c(c2c(=O)[nH]1)CCC(C)C3 (stereo unspecified) | inconclusive: 89.1 µM [inhibitor, partial curve, poor fit]
Cc1cc(S(=O)(=O)C(CNC(=O)c2ccc(OC(C)C)cc2)c2cccs2)ccc1F (stereo unspecified) | inconclusive: 79.4 µM [inhibitor, partial curve]
COc1ccc(/C=N/NC(=O)c2cc(Br)ccc2O)cc1Cn1cc(Cl)cn1 | inconclusive: 25.1 µM [inhibitor, partial curve, poor fit]
COc1ccc(NC(=O)CSc2nc3c([nH]c4ccccc43)c(=O)n2-c2ccccc2)c(OC)c1 | inactive
C/C(=C\C=C(C#N)C#N)c1cc(C#N)c(N)o1 | inconclusive: 56.2 µM [inhibitor, partial curve, poor fit]
COc1cccc(/C=C/C(=O)OCC(=O)Nc2nnc(-c3ccccc3)o2)c1OC | inconclusive: 20 µM [inhibitor, full curve, poor fit]
O=c1[nH]c2cnn(-c3ccccc3)c2c(=O)n1O | inconclusive: 14.1 µM [inhibitor, partial curve]
Cc1ccc(/C=C/C(=O)NCCc2ccccc2)o1 | inconclusive: 56.2 µM [inhibitor, partial curve, poor fit]
